Assay results from ChEMBL document CHEMBL3301361, “Experimental in vitro DMPK and physicochemical data on a set of publicly disclosed compounds”.
≈ marks a conversion by molar mass, not a printed value.

Tests used:
physchem [1] = conditions: pH 7.4 buffer
physchem [2] = conditions: octan-1-ol/water, pH 7.4

| Structure (SMILES) | solubility thermodynamic (physchem [1]) [µM] | logD (physchem [2]) |
| --- | --- | --- |
| Nc1nc(Cl)nc(NCc2ccccc2)n1 | 28.2 (≈ 6.65 µg/mL) |  |
| NC(=O)c1ccccc1OCc1ccccc1 | 126 (≈ 28.6 µg/mL) |  |
| O=C(Nc1ccc(Cl)c(Cl)c1)N1CCN(C[C@@H]2CCCN(Cc3ccccc3)C2)CC1 | 42.7 (≈ 19.7 µg/mL) |  |
| COc1cc2cc(-c3ccc(O)cc3O)nc(C)c2cc1OC | 1.2 (≈ 0.374 µg/mL) |  |
| COC1CCN(C(=O)C2CCN(CCc3c(-c4cc(C)cc(C)c4)[nH]c4sc(C(C)(C)C(=O)N5C6CCC5CC6)cc34)CC2)CC1 | 29.5 (≈ 19 µg/mL) |  |
| Cc1nc2ccccn2c1-c1ccnc(Nc2cccc(Cl)c2)n1 | 6.5 (≈ 2.18 µg/mL) |  |
| N=C(N)c1cc2c(/C=C/c3ccc4c(c3)OCO4)cccc2s1 | 3.6 (≈ 1.16 µg/mL) |  |
| Cc1cc(CNc2ncc(Br)c(Nc3cc(C4CC4)[nH]n3)n2)on1 | 43.7 (≈ 17.1 µg/mL) |  |
| CCCSc1ncccc1C(=O)NC1CCC(F)(F)CC1 | 60.3 (≈ 19 µg/mL) |  |
| N#Cc1ccc(-c2ccc(S(=O)(=O)Nc3cccc(N)n3)cc2)cc1 | 1.3 (≈ 0.456 µg/mL) |  |
| Cc1ncc(-c2ccnc(Nc3ccc(S(=O)(=O)CC4CCCO4)cc3)n2)n1C(C)C (configuration not stated) | 69.2 (≈ 30.6 µg/mL) |  |
| CC(C)(C)NC(=O)Nc1ccc(-c2c(N)nc(N)nc2COCc2ccccc2)cc1 | 427 (≈ 179 µg/mL) |  |
| COC(=O)C1=C(C)NC(C)=C(C(=O)OC)C1c1ccccc1[N+](=O)[O-] [NIFEDIPINE] | 20.9 (≈ 7.24 µg/mL) | 3.29 |
| CN(C(=O)Cc1ccc(-n2cnnn2)cc1)C1CCN(Cc2nc3cc(F)ccc3s2)CC1 | 1.5 (≈ 0.698 µg/mL) |  |
| O=C(O)c1ccc(-n2ncc(C(=O)NC3C4CC5CC(C4)CC3C5)c2C(F)(F)F)cc1 (configuration not stated) | 1260 (≈ 546 µg/mL) |  |
| CN(C(=O)Cc1ccc(S(=O)(=O)N(C)C)cc1)C1CCN(CCC(c2ccccc2)c2ccccc2)CC1 | 490 (≈ 261 µg/mL) |  |
| CCN(C(=O)Cc1ccc(S(C)(=O)=O)cc1)C1CCN(Cc2ccc(C(F)(F)F)cc2)CC1 | 8.9 (≈ 4.29 µg/mL) |  |
| OC1(c2ccc(F)cc2)CCN(c2ccc3nnc(C(F)(F)F)n3n2)CC1 | 1.6 (≈ 0.61 µg/mL) |  |
| O=S(=O)(Nc1ncns1)c1cc(F)c(Oc2ccc(Cl)cc2-c2ccnn2C2CNC2)cc1F | 25.1 (≈ 13.2 µg/mL) |  |
| Cc1ncc(-c2ccnc(Nc3ccc(N4CCN(C(=O)CO)CC4)cc3)n2)n1C(C)C | 158 (≈ 69 µg/mL) |  |
| COc1cc(C(=O)NS(=O)(=O)c2ccccc2C)ccc1Cc1c[nH]c2ccc(NC(=O)CC3CCCC3)cc12 | 2.8 (≈ 1.57 µg/mL) |  |
| Cc1cc(CNc2nccc(Nc3cc(CCc4ccccc4)[nH]n3)n2)on1 | 26.9 (≈ 10.1 µg/mL) |  |
| NCc1ccc(NC(=O)c2cc(Nc3ncccn3)c3cc(/C(N)=N/O)ccc3c2)cc1 | 28.2 (≈ 12.1 µg/mL) |  |
| Cc1ccc(CO)cc1N(c1ccnc(Nc2cc(N3CCOCC3)cc(N3CCOCC3)c2)n1)C(C)C | 32.4 (≈ 16.8 µg/mL) |  |
| CCOC(=O)c1ccc(OCC2CCN(c3ccc(C)nn3)C2)cc1 (configuration not stated) | 170 (≈ 58 µg/mL) |  |
| COC[C@H](C)Oc1cc(Oc2ccc(Cl)cc2)cc(C(=O)Nc2ccc(C(=O)O)cn2)c1 | 776 (≈ 355 µg/mL) |  |
